Experimental data: PubChem BioAssay (NCI)
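Values below derive from 48-hour exposures of cells grown in 96-well plates, with endpoints linearly interpolated between the two concentrations bracketing the appropriate inhibition level. GI50: concentration for 50% inhibition of growth. TGI is the concentration that stops growth completely.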

Test system: NCI-H322M lung
Assay: growth of human tumour cells (NCI), 48 h

Compound	GI50 [µM]	TGI [µM]
C[C@@H]1C/C=C\C(=O)O[C@H](/C=C/C#C/C=C/C(C)(C)[C@@H](O)c2cccc(O)c2Br)[C@@H](C)/C=C/[C@H](C)C[C@H](OC(N)=O)C1	0.0772	19.7
Cn1c(=O)sc2cc(C(=S)N3CCOCC3)ccc21	–	> 100
CC1=C2C(=O)c3ccccc3C(=O)[C@H]2C[C@@H](N2CCCCCC2=O)O1	–	63.7
CC(C)(C)CC(C)(C)c1ccc(OCCOCC[N+](C)(C)Cc2ccccc2)cc1	–	24.4
NS(=O)(=O)c1cc(S(N)(=O)=O)c(NC(=O)N(c2ccccc2)c2ccccc2)c(Cl)c1Cl	–	96.9
NC(=O)c1cc(I)ccc1NC(=O)COc1ccccc1	1.37	> 100
C/C(=N/O)c1ccc2c(c1)C(=NO)c1cc(/C(C)=N/O)ccc1-2	–	31.3
O=C(Nc1cc(S(=O)(=O)c2ccc(Cl)cc2)ccc1Cl)c1cc(I)cc(I)c1O	15.9	29.4
COc1ccc2[nH]c3c(=O)[nH]ncc3c2c1	–	> 100
Cn1cc(CO)c2ccccc21	90.8	> 100
CC(C)C1CC(CO)(CNc2cc(Cl)nc(N)n2)C1 (stereo not given)	–	> 100
CCC(=O)c1cc([N+](=O)[O-])c(Br)s1	16.6	30.8
O=C(O)C1C2C=CC(O2)C1C(=O)Nc1ncccn1 (stereo not given)	–	> 100
CC(=O)OCCC(O[Si](c1ccccc1)(c1ccccc1)C(C)(C)C)C(C)(C)O (stereo not given)	–	> 100
O=C(O)Cn1ccnc1[N+](=O)[O-]	–	> 100
CCCCCCOc1ccc(C(=N)N(CCCC)CCCC)c2ccccc12	1.4	2.77
Cc1c2cccc-2ccc2c1[nH]c1ccccc12	–	16.5
CCOc1ccc(-c2oc(/C=N/NS(=O)(=O)c3ccc(C)cc3)c([N+](=O)[O-])c2-c2ccc(OCC)cc2)cc1	–	> 70.3
CN(C)C/C=C/C(=O)Nc1ccc(C(=O)N2CCC[C@@H](Nc3ncc(Cl)c(-c4c[nH]c5ccccc45)n3)C2)cc1	0.147	10.2
O=C(/C=C/c1cn(-c2ccccc2)nc1-c1ccc([N+](=O)[O-])cc1)c1ccc(Cl)cc1	> 100	> 100
COc1cc2cc(Oc3ccc(NC(=O)c4cccc5c4OCCO5)cc3)c(C)nc2cc1OC	17.7	> 100
COC(=O)n1c(C[P+](c2ccccc2)(c2ccccc2)c2ccccc2)cc2ccccc21	–	25.9

Compound	GI50 [µM]	TGI [µM]
NC(=O)C1=CC2C3C=CC2(O)C(=O)OC3O1 (stereo not given)	–	44
CC(C)CCCC(C)[C@H]1CC[C@H]2N=C(Nc3ccccc3)CCC[C@]12C (stereo not given in full)	–	34.6
O=C(Nc1ccccc1O)c1ccc(CNC(=O)c2ccsc2Nc2ccnc(C(F)(F)F)c2)cc1	3	39.8
Cc1ccc(-n2c3c(c4c(CN5CCOCC5)c(O)ccc42)CCc2ccccc2C3=O)cc1	> 100	> 100
O=C(OCc1ccccc1C1CSCSC1)c1cc(C(=O)OCc2ccccc2C2CSCSC2)c(C(=O)OCc2ccccc2C2CSCSC2)cc1C(=O)OCc1ccccc1C1CSCSC1	–	> 100
O=C1C(c2ccccc2)=C(c2ccccc2)[C@H](c2ccccc2)[C@]1(Cc1nnn(-c2ccc([N+](=O)[O-])cc2)c1N1CCOCC1)c1ccccc1	–	> 37.5
CC1(C)C2CCC13C(=O)C1OC3(C2)C2C(=O)c3c(O)cccc3C(=O)C12 (stereo not given)	10.1	22.4
O=C(CSc1nc2ccc(I)cc2c(=O)n1Cc1ccccc1)NN1C(=O)CCC1=O	–	> 100
CC(C)=CCC[C@@H](C)c1c2[nH]c3ccccc3sc-2c(C)c(=O)c1=O	–	> 75
COc1ccc2c(c1)nc1n2C(c2ccc(F)cc2)SC1 (stereo not given)	23.3	> 100
Fc1c[c-]c(-c2ccccn2)c(F)c1.[CH3-].[Pt+2].c1ccc(P(C[PH+](c2ccccc2)c2ccccc2)c2ccccc2)cc1	1.22	4.4
CCOC(=O)/C(C#N)=C/N(CC)/N=C/c1ccccc1	–	> 100
c1ccc([P+](c2ccccc2)(c2ccccc2)c2ccc([P+](c3ccccc3)(c3ccccc3)c3ccccc3)cc2)cc1	–	> 100
O=c1[nH]c2cc(Cl)c(Cl)cc2n2cc3ccccc3c12	13.6	27.2
Cc1nnc(N=Nc2c(O)[nH]c3ccccc23)n1N	–	> 100
COc1ccc2cc(-c3c(-c4ccncc4)nc(-c4ccc(S(C)=O)cc4C)n3C)ccc2c1 (stereo not given)	> 25	> 25
COC(=O)c1ccc(/C=C2\CCc3ccccc3C2=O)cc1	–	> 100
CCN(CC)CCN(C)CCc1ccc(Br)cc1	–	> 100
CCCCCCCCCCCCCCCCOCC(Cl)COP(=O)(O)OP(=O)(O)OCC1OC(n2cnc3c(N)ncnc32)C(O)C1O (stereo not given)	–	> 100
Cc1cc2occ(-c3ccc(Cl)cc3)c2c(=O)o1	–	> 100
C1=C2CNCC3=Cc4ccc5ccccc5c4OC23Oc2c1ccc1ccccc21	10.8	32.9
